Screen size: about 350,000 compounds; about 9,900 (2.8%) were called active. Inconclusive means that the source gave no clear call. Such entries were picked first, then a sample of the others. Calls follow the shape of the dose curve; as a rule, active = well fitted activation curve with a large enough effect; inconclusive = small, poorly fitted or top-dose-only effect; inactive = no such curve, though single readings can be large or run the other way. Potencies of inconclusive entries are left out as doubtful fits.
Experiment: A quantitative high throughput screen for small molecules that induce DNA re-replication in MCF 10a normal breast cells. Also: nearly all actives have a fitted effect of over 50% in size. As to activity, positive = re-replication: % of control where 0% means no effect.
Conditions: MCF 10A DNA re-replication, Hoechst nuclear intensity, 48 h; activity, positive = re-replication: at 46.1 µM (top of the series)
Potency is read from the fitted curve at half-maximal effect; tags tell the direction and shape of the fitted curve.

SMILES	Potency	activity, positive = re-replication
Cc1ccc(NNC2CC(=O)N(c3cccc(Cl)c3)C2=O)cc1 (configuration not stated)	inconclusive [activator, single point]	–
COc1ccc(C(=O)NCCS(=O)(=O)NCCc2ccccc2)cc1	inconclusive [activator, partial curve, poor fit]	–
O=C(N/N=C/c1cccc(C(F)(F)F)c1)c1cc2c(s1)-c1ccccc1CC2	inconclusive [activator, full curve, poor fit]	–
Cc1cc(NCc2ccccn2)n2nc(C)c(-c3ccc(Cl)cc3)c2n1	inconclusive [activator, single point]	–
O=C(C1CC(c2ccccc2O)=NO1)N1CCCCC1 (configuration not stated)	inconclusive [activator, single point]	–
Cc1ccc(-n2nc3c(SCCN4CCOCC4)nnc(C)c3c2C)cc1	inconclusive [activator, single point]	–
CC(C)CC(NC(=O)OC(C)(C)C)c1cn([C@@H](Cc2cc3ccccc3[nH]2)C(=O)N2CCN(C(=O)OC(C)(C)C)CC2)nn1 (some centres not stated)	inconclusive [activator, full curve, poor fit]	–
Cc1cc(C)c2nc(-c3ccccn3)cc(C(=O)Nc3ccc(S(=O)(=O)Nc4onc(C)c4C)cc3)c2c1	inconclusive [activator, single point]	–
CCC(C)n1cnc2c(c1=O)c1nc3ccccc3nc1n2Cc1ccc(OC)cc1 (configuration not stated)	inconclusive [activator, single point]	–
CCC(Oc1ccccc1)C(=O)Nc1nc2ccccc2[nH]1 (configuration not stated)	inconclusive [activator, partial curve, poor fit]	–
CCN1C(=O)CC(Sc2ccccc2C(=O)O)C1=O (configuration not stated)	inconclusive [activator, single point]	–
N#Cc1cc(NC2CCCC2)c([N+](=O)[O-])cc1C#N	inconclusive [activator, full curve, poor fit]	–
Cc1c(NC(=O)Nc2ccc(Cl)c(Cl)c2)sc(=S)n1C	inconclusive [activator, single point]	–
Cc1cccc(NC(=S)N(c2ccccc2)C(C)C)c1C	–	inactive: 1.28%
CCn1c2ccccc2c2cc(NS(=O)(=O)c3ccc(C)cc3)ccc21	active: 18.4 µM	–
O=C(O)C1Cc2[nH]cnc2C(c2ccc(F)cc2)N1 (configuration not stated)	inconclusive [activator, single point]	–
CCCCc1ccc(NC(=O)CSc2nc(=O)n3cc(C)ccc3n2)cc1	inconclusive [activator, single point]	–
O=C(CCN1CCCCC1)c1ccccc1	inconclusive [activator, partial curve, poor fit]	–
O=C(CSc1nc2ncc(Br)cc2[nH]1)Nc1ccccc1-c1ccccc1	active: 25.9 µM	–
Cc1ccc(-n2c(C)cc(C(=O)CN3CCCCC3)c2C)cc1	inconclusive [activator, single point]	–
COc1cccc(C2C(C(=O)c3cc4ccccc4o3)=C(O)C(=O)N2c2cc(C)on2)c1 (configuration not stated)	active: 18.4 µM	–
CCc1ccc(NC(=O)C2C3/C=C\CCCCC32)cc1 (configuration not stated)	inconclusive [activator, single point]	–
N#Cc1c(C(F)(F)F)cc(-c2ccc(F)cc2)[nH]c1=O	active: 20.6 µM	–

SMILES	Potency	activity, positive = re-replication
COc1ccc(-c2csc3nc(C)nc(N4CCCCC4)c23)cc1OC	inconclusive [activator, single point]	–
O=C(O)c1ccc2c(=O)n3c(nc2c1)/C(=C/c1cccc(Cl)c1Cl)CCCC3	–	inactive: 0.31%
Cc1cccc(N2CCN(C(=O)Cn3cccc3C(=O)c3ccccc3)CC2)c1C	inconclusive [activator, full curve, poor fit]	–
COc1ccccc1-c1ccc(SCc2ccc(F)cc2)nn1	inconclusive [activator, single point]	–
c1ccc(CN=C(NCc2ccccc2)NCc2ccccc2)cc1	inconclusive [activator, single point]	–
CC(Sc1nnnn1-c1ccccc1)C(=O)Nc1ccc(N2CCN(C)CC2)cc1 (configuration not stated)	inconclusive [activator, full curve]	–
CC(C)C(NC(=O)c1ccc(Cl)cc1Cl)C(=O)N1CCC1 (configuration not stated)	inconclusive [activator, partial curve, poor fit]	–
COc1ccc(C(=O)Nc2cccnc2)cc1C(=O)Nc1cccnc1	inconclusive [activator, single point]	–
O=C1O/C(=C/c2ccccc2)N=C1c1ccccc1	inconclusive [activator, partial curve, poor fit]	–
CCOc1ccc(-n2c(=S)sc3c(=O)[nH]c(SCC(=O)NCC4CCCO4)nc32)cc1 (configuration not stated)	inactive	–
Cc1ccc(NC(=O)Cn2c(=O)c3cccn3c3ccccc32)cc1	inconclusive [activator, single point]	–
O=C1c2ccccc2NC(c2ccc(-c3ccc(F)cc3)o2)N1O (configuration not stated)	inconclusive [activator, single point]	–
Cc1cnc(C(=O)OC(C)C(=O)NCc2ccccc2)cn1 (configuration not stated)	–	inactive: -2.46%
COC(=O)c1ccc(Cn2cc(Cl)cn2)o1	inconclusive [activator, full curve, poor fit]	–
CCCCCCCC(=O)NC(Nc1ccccc1OC)C(Cl)(Cl)Cl (configuration not stated)	inconclusive [activator, full curve, poor fit]	–
CSc1sc(C(=O)N2CCc3ccccc32)cc1S(=O)(=O)C(C)C	inconclusive [activator, single point]	–
CCOC(=O)C1=CC[C@H]2c3c(c4ccccc4n3C)C(=O)C1N2C(=O)OC(C)(C)C	–	inactive: 0.114%
Cc1cccn2c(=O)c3cc(C(=O)N4CCN(Cc5ccccc5)CC4)sc3nc12	inconclusive [activator, single point]	–
COc1cc(C(=O)Nc2cccc(-c3nc4cc(C)ccc4o3)c2C)cc(OC)c1OC	active: 7.31 µM	–
CC(C)(C)c1ccc(C(=O)NC(=O)COC(=O)c2ccco2)cc1	inconclusive [activator, single point]	–
COc1ccc(C2CC(c3ccccc3OC(C)=O)=NN2C(=O)/C=C/c2ccccc2)cc1OC (configuration not stated)	–	inactive: 12%
O=C(CN1CCN(CC(=O)Nc2ccc3c(c2)OC2(CCCCC2)O3)CC1)Nc1cccc(F)c1	inconclusive [activator, single point]	–
Cn1c(C(=O)NCc2cccs2)cc2oc3ccccc3c21	inconclusive [activator, full curve, poor fit]	–

SMILES	Potency	activity, positive = re-replication
O=C(CSc1ncnc2ccccc12)Nc1ccc2c(c1)OCCO2	–	inactive: -3.18%
CCOC(=O)c1ccc(N2C(=O)c3n[nH]c(C)c3C2c2cccnc2)cc1 (configuration not stated)	inconclusive [activator, full curve, poor fit]	–
COc1ccc(Cl)cc1NC(=O)c1cc(-c2ccccc2O)n[nH]1	–	inactive: 10.9%
CCOC(=O)C1CCN(CC(=O)Nc2cc(S(=O)(=O)N3CCCCC3)ccc2Cl)CC1	–	inactive: 17.6%
O=C1[C@@H](Oc2ccccc2)[C@@H](c2ccccc2)N1c1ccccc1	inconclusive [activator, single point]	–
CCCOC(=O)/C(=C\c1ccc([N+](=O)[O-])o1)NC(=O)c1ccccc1	inconclusive [activator, single point]	–
Fc1ccc(/C=N/n2c(C3CCCCC3)n[nH]c2=S)cc1	inconclusive [activator, single point]	–
CCOc1ccc(NC(=O)CSc2ncc(-c3ccc(F)cc3)n2Cc2ccco2)cc1	inconclusive [activator, single point]	–
CSC(=S)N/N=C/c1ccccc1	–	inactive: -6.31%
COc1ccc2[nH]c(C(=O)N/N=C/c3ccc(OC)c(O)c3)cc2c1	active: 2.06 µM	–
Cc1ccc(-n2ncc3c(=O)[nH]c(SCC(=O)N4CCC(C)CC4)nc32)cc1C	–	inactive: 11.3%
C[C@@H]1CC=C[C@@H]2[C@H]1C(=O)N(Cc1ccccc1)[C@H]2c1cccc(C#Cc2ccccc2)c1	inconclusive [activator, partial curve, poor fit]	–
CC(=O)c1ccc(N2CCN(C(=O)Cc3ccccc3)CC2)c(F)c1	inconclusive [activator, partial curve, poor fit]	–
CCNC(=S)Nc1ccccc1-c1ccccc1	inconclusive [activator, single point]	–
COc1cc(NC(=O)c2cc3ccccc3cc2O)c(OC)cc1Cl	inconclusive [activator, single point]	–
Cn1c(N/N=C/c2cc3ccccc3nc2Cl)nc2ccccc21	inconclusive [activator, full curve, poor fit]	–
N#Cc1cc2c(nc1SCC1COc3ccccc3O1)CCC2 (configuration not stated)	inconclusive [activator, full curve, poor fit]	–
Cn1cc(CCCC(=O)NCc2ccccc2)c2ccccc21	inconclusive [activator, partial curve, poor fit]	–
CN1/C(=C\C(=O)CSc2ncn[nH]2)C(C)(C)c2ccccc21	–	inactive: -2.9%
CCOc1ccc(-n2c(SCC(=O)Nc3cc(C)on3)nc3c(c2=O)SCC3)cc1	–	inactive: 7.36%
CCOc1ccc(C(=O)Cc2cc(OC)c(OC)cc2[N+](=O)[O-])cc1	active: 4.61 µM	–

From PubChem BioAssay AID624296 (National Center for Advancing Translational Sciences (NCATS), 2012)
